# Laboratory results taken from the supplement of paper PMC12632987.
# Whole data set: some 4,500 sequences, median “median log2 fold change of GCK-ALFA target abundance (FLAG IP / Myc IP barcode read proportion)” near 0.078, cut for the lowest 2% near -0.6. This is one part of the list.
# B1: GBRAP_184_5042 (protein)
# chain: KIFEATIKFENLEELKEKLEELEEEVKDHKGELIVHVEAPKFTKEMVETLMERLKEILEKGYAKSVTVGLDGEMSEEVVDLAVELAKKAGINLTLALSEE
# B2: GBRAP_52_6080 (protein)
# chain: MKEEIEKVAEEIVKAIAAGDKEGALEIIRKAIKEFSVEEIKEMLELAARKVAELGEEQHELFVEVLDEAYDLMLEEGISEEDALLIVGAAEAALAKAVAA
# B3: GBRAP_125_2998 (protein)
# chain: SEEELAEALAIILKALGYSEDEIKEAIEIARKHGIKQTMIAIALAEGAEELAELLEKLTEEEAAEIVKEVAKALKENPDMTPEEVLEKMKELAKKALEKK
# B4: GBRAP_160_4688 (protein)
# chain: SEKVEKAEKFIEEEFEEVVEIHEEVTKEELAAAVRVAFGNIILELEELGLLTDEIGEIIREEEDKIVKYILENPNITKEELKKMLEEAKEKIVKKLKEES
# B5: GBRAP_150_3906 (protein)
# chain: DLETALTIASTLIDILEAILDGEFDLLPHAIKLAKALLEEAKEISEEIKKLAEKLLKLLEEAKKLLKEGGKKEEIKKLVEKALELAKKIEELLEKKIKEE
# B6: GBRAP_160_4134 (protein)
# chain: KEELEKLIKEIKEITEEAIKLIEGESVENAKTIAKVALGDILLLVSSNEAVSEETEDKIGEIVDEAEKYLDDNPNASVEEIKELLKETTEKVVEILKEER
# B7: GBRAP_11_2800 (protein)
# chain: KKEKLEEAAELAEKLAEKLEELIEKGVDDEELREEIRELLEELEKLAKEHLDKGLQKLVEIAKELFEKIDEDPENAEQYAKEALATVRVLEGNILLEIEE
# B8: GBRAP_128_3521 (protein)
# chain: SIEEAIKEARETVEKIKNSSVEEAYKIAKEFLEKLKEWSLEEVEAAVEEMEKLLPELSAEKLEAVADAIREQRGEFSPEVARLLAGLQVEALNLAEEKEE
# B9: GBRAP_35_5588 (protein)
# chain: EDEELILEELEDQAEATLWALKEEDDETALAMLEAFIRFAKRAIEDLKNNKEALEKIAELIEEVIKAIKEYRSDNPEFQKKLKELEKLLKEAKELIKKNE
# B10: GBRAP_160_4837 (protein)
# chain: SEKEKEVEKRFKEVEEFILSLVDEVSVEELANAFDTETGSVILELYEEGVINEEAEDKAMELRDETVEALRAAKDASPEELKKIIKEGIKKIIEAIKALL
# B11: GBRAP_52_6037 (protein)
# chain: MREKMREKAEEIVKLVLEGKLEEAEKLIRELVETLSEEELLLLGEELARIAREAPEEELDAILEAAFILADELIEGGYEEVLADEIEARVTRAAVERLER
# B12: GBRAP_95_7076 (protein)
# chain: EEDLELLEILADTAIDLYEAGLKEEAARLMKLAIEEAKELGYKVKNKELWTKLLKYFVELALEYFDAEEVEKALEIAKASGAPEEIIEELEKKLEELKKK
# B13: GBRAP_52_5856 (protein)
# chain: SAARMRALAEELLALQLAGDEAGLEARIAELVATLSEEEILALLEELAALAKEANPEEAEAILEVAELLADAAEAAGFDEDELSYALAEVAAAAYKQLQK
# B14: GBRAP_11_2802 (protein)
# chain: KKEELKKIAKLAEELAKAVEELLKKGVDDEKLLKEIKKLLEELKKLVEKYGDEGLKKLAEIAEELLKKAEADPENKEQYLKELLATARVLAGNVLLEIEE
# B15: GBRAP_11_2860 (protein)
# chain: KKEKLKEAAELAKEAAELLEELLERGPDDEELRKKLREALEELEKLLKEYGDKDLIKLAEFAAEDFEKAQEDPENAEEHLRRALAATRVLEGQLLLEIDE
# B16: GBRAP_52_6166 (protein)
# chain: AEARAAALADRLVAAVRAGDEAAVRAILEEAAATMNDEELALLLDHVAARVAGLSPEDQERVVEAAIEFEDIAIAAGHDEELLSYHVARVAAAAYDALQA
# B17: GBRAP_166_4943 (protein)
# chain: DLEEVKKKLEEEIEEFKKNISKLNDEERNDALIEIGELIREAKEAGMSDEEIVEAIGKVLEAAKEAGFNPANAAGIIINVADLSEELRDKVWEYVDKLKK
# B18: GBRAP_52_6157 (protein)
# chain: MEARAEAYANALIAAVKAGDEAAIRALMEEIAATLSEEEIELMMAIVAEKVAGLTPEEQERAVEAALELEDILIAAGHDENIASYNTARVAGAAYDALQA
# B19: GBRAP_11_2824 (protein)
# chain: SKAKKEELAKKAEAIAKRLAALIASGAPTEEELEALREEAKALLEEVKKHGTPAEAKLAEILLEEIEKAIADPENREEHLKNALAFAQVLAGQFLLEADE
# Molecular target: GABARAP, O95166
# Experiment: median log2 fold change of GCK-ALFA target abundance (FLAG IP / Myc IP barcode read proportion) (log2 ratio); each designed protein is fused to an ALFA-tag nanobody in HEK293 cells to bring the named protein to FLAG-tagged glucokinase (GCK); Myc marks an untargeted standard; higher = target protein stabilised (more abundant)
# Details: target protein: 3xFLAG-MCP-GCK-ALFA reporter; HEK293 landing pad (RPLP)
# How it was run: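 An ALFA-nanobody-fused binder library was recombined into HEK293 landing-pad cells and induced with 2 μg mL^−1 doxycycline. Cells were transfected with a plasmid expressing a FLAG-tagged target and a Myc-tagged standard. After 48 h, lysates underwent anti-FLAG and anti-Myc immunoprecipitation, and circular RNA barcodes were reverse transcribed, amplified and sequenced. Target abundance is the per-binder median log2 ratio of FLAG to Myc barcode read proportions. Barcodes needed ≥10^−7 proportion in both replicates, binders ≥3 barcodes per replicate, and a 10^−6 pseudocount was added; the two replicates were pooled.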
# Chain of GABARAP, O95166 (O95166 whole entry, the tested form may be a part): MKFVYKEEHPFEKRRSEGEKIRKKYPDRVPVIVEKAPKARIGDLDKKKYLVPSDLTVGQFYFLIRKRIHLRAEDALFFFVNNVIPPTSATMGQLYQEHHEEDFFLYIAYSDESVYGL
row,Binder,median log2 fold change
1,B1,0.434
2,B2,0.146
3,B3,-0.123
4,B4,-0.0437
5,B5,-0.555
6,B6,-0.336
7,B7,0.203
8,B8,0.363
9,B9,-0.0436
10,B10,0.52
11,B11,-0.655
12,B12,-0.202
13,B13,-0.118
14,B14,0.248
15,B15,0.221
16,B16,-0.0855
17,B17,0.291
18,B18,-0.262
19,B19,0.0218
